# According to the supplement of paper PMC12217912:
# The other results are listed elsewhere or left out. The full chains were built here from the parent and the listed change. Values near 0.05 are background.
# B1: TEV protease; numbered along this chain (parent)
# chain: MGESLFKGPRDYNPISSSICHLTNESDGHTTSLYGIGFGPFIITNKHLFRRNNGTLVVQSLHGVFKVKDTTTLQQHLVDGRDMIIIRMPKDFPPFPQKLKFREPQREERICLVTTNFQTKSMSSMVSDTSCTFPSGDGIFWKHWIQTKDGQCGSPLVSTRDGFIVGIHSASNFTNTNNYFTSVPKNFMELLTNQEAQQWVSGWRLNADSVLWGGHKVFMVKPEEPFQPVKEATQL
# Variants of: B1
# Assay: raw area under fraction-flipped curve 0-4 h after induction (AUC4h, not background-subtracted), DNA-recorder readout of cleavage of the substrate (dimensionless); higher = more cleavage of the substrate by the protease variant
# Details: temperature: 34 °C; time window: 0-4 h after rhamnose induction
# Description: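 In vivo DNA recorder in E. coli TOP10(DE3) ΔrhaA at 34 °C. Each TEVp single-site mutant (parent TEVp 0) is paired with a single-site variant of the 7-mer TEVs (canonical ENLYFQ|S). The substrate sits between flexible linkers in a Bxb1-sfGFP-TEVs-SsrA fusion, so cleavage stabilises Bxb1 and speeds flipping of a recombination array, read by NGS. The value is the raw area under the fraction-flipped curve over 0-4 h after rhamnose induction (AUC4h), with ≥20 reads per time point. It is not background-subtracted; inactive controls average about 0.047.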
# 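Note: Bxb1 expression induced with 0.2% (w/v) L-rhamnose at OD600 near 0.5, cultures sampled hourly, flipped fraction per protease–substrate barcode pair counted by paired-end Illumina sequencing.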
Variant,area with substrate ENLAFQS,area with substrate ENLCFQS,area with substrate ENLEFQS,area with substrate ENLGFQS,area with substrate ENLHFQS,area with substrate ENLIFQS,area with substrate ENLKFQS,area with substrate ENLPFQS,area with substrate ENLQFQS,area with substrate ENLRFQS,area with substrate ENLSFQS,area with substrate ENLVFQS,area with substrate ENLWFQS,area with substrate ENLDFQS,area with substrate ENLNFQS,area with substrate ENLFFQS,area with substrate ENLLFQS,area with substrate ENLTFQS,area with substrate ENLMFQS
L191W,0.051,0.062,0.0473,0.0601,0.055,0.0766,0.064,0.0639,0.0663,0.0755,0.0604,0.057,0.0449,,,,,,
N193F,0.0783,,,0.0691,,0.103,0.0635,0.054,,,0.0538,0.0551,,0.0676,0.0536,,,,
Q197L,0.0709,,0.0613,0.0679,0.0697,0.0909,,0.0568,0.0741,,,,,0.0605,,0.0948,0.0635,0.0325,
W199A,0.0435,,,,0.0512,,0.0623,0.0654,0.0756,,,,0.0592,0.0641,0.0563,0.0568,,,
W199T,0.0643,0.0578,0.0818,0.0684,0.0655,,0.0658,0.0692,,0.0678,0.0459,,0.0692,0.0626,0.0778,0.0846,0.0749,,
S201M,0.0786,0.0823,,,0.0741,0.0831,0.061,,,0.0924,0.0587,,0.089,0.0663,0.0173,0.0691,0.0303,,0.0654
W203H,0.0586,,0.053,0.0537,,0.0548,,0.0623,0.0599,,0.0622,0.0527,0.0678,,0.0762,0.0659,,0.0436,
W203Q,0.0719,,0.0551,,,0.0477,0.0599,0.0754,,,,,,0.0495,0.065,,,,0.0772
R204Y,0.0517,,,,0.0793,0.0787,0.0805,,0.0593,0.0888,0.063,,0.0932,0.061,0.0672,0.114,0.0654,,
L205P,0.0544,,0.0785,,,0.0411,0.056,,,,0.0436,,,0.0076,0.0555,0.0533,,,
N206D,0.06,0.0708,0.0571,,0.0699,,0.0902,0.0843,0.0684,0.0798,0.0759,0.0988,,0.0641,0.0655,0.0926,0.0786,0.0445,0.0797
N206Q,0.063,0.0733,0.0709,,0.0664,0.0751,,,,,,0.0758,,0.0708,0.0247,0.0732,0.0546,,
A207F,0.059,,0.063,,0.0681,0.079,0.0729,0.0487,0.0619,0.0678,0.0658,,0.0642,0.0675,,0.073,0.0615,0.0703,
V210I,0.0855,,,,,,0.079,,,,,0.101,,,,0.0651,0.0501,,
V210W,0.06,0.0709,,,0.0591,0.0617,,,,0.0653,,0.0545,0.0521,0.0598,0.06,0.0588,0.0656,,
L211E,0.0742,0.0768,0.0643,0.0652,0.0752,0.111,0.095,0.0573,0.0757,,0.0697,0.0917,0.0825,0.0654,0.0642,0.0978,0.0803,,
L211G,0.0521,0.0363,0.0458,,0.0604,,0.0667,,,,,,0.0641,0.0651,,,0.0686,0.0896,
W212I,0.075,0.0639,0.0575,0.0811,,,0.087,0.0653,0.0914,0.098,0.0614,,0.109,0.0608,0.0554,0.11,,,
W212T,0.0575,0.07,0.057,,0.0657,0.0517,0.0707,,0.06,0.0764,0.0599,,0.0648,0.0624,0.0481,0.066,0.0535,0.0619,
W212Y,0.0546,,,,0.081,0.104,0.0863,0.0498,,,0.0563,,,0.0621,0.078,0.0896,,0.0828,
K216Y,0.0589,0.0553,0.0685,0.0662,0.0737,,0.0679,0.0572,0.0578,,,0.114,,0.0535,0.0653,0.0654,0.0526,,0.068
V217M,0.0688,0.0556,,0.0627,0.058,,0.0724,,,0.072,0.0551,,,0.0596,0.0573,0.0824,0.0544,,
F218C,0.0635,,,,0.0581,0.0584,,0.081,0.0484,,0.0744,,,0.0539,0.0628,0.0874,,,
V220F,0.0669,0.0738,0.0623,0.0612,0.0625,0.0855,,0.0573,0.0698,0.076,,0.0769,,0.0541,0.067,0.0823,0.0704,,
V220H,0.0655,0.0716,0.0582,0.067,0.068,0.099,0.0793,0.068,0.0887,,,0.116,,0.066,0.0565,0.0829,0.0871,,0.0717
V220K,0.0544,0.0822,,,0.0676,,0.0475,0.0446,0.0693,0.0881,0.0569,,0.0714,0.0713,0.0569,0.0776,0.0708,,0.0732
F226L,0.067,,0.0896,0.0657,,0.102,0.0813,0.0478,0.0698,,,0.0778,,0.0652,0.0737,0.0816,,,
F226P,0.0862,,,,0.0771,0.0868,,,,0.0413,0.0718,0.0869,,0.0644,0.0389,,,,
E231Y,0.0454,,0.0618,,0.0759,,,,,0.0722,,,,,0.056,0.0727,0.0623,,0.0682
A232I,0.0928,,0.0713,,,0.0937,0.109,,0.0721,,0.0432,,0.0666,0.059,,,,,
